The supplement of paper PMC4604168 (melanoma cell lines)
Some of the results follow. Single values are uncertain, as repeats are few or missing.

Tested on: A101D
Test: cell count relative to DMSO control; melanoma cells; higher = more viable cells
Conditions: library dose: low library concentration; 72 h
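Note: cell number obtained by counting DAPI-stained nuclei in high-throughput microscope images with image analysis software, screen run in 1,536-well plates.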

Structure (SMILES) | cell count [%]
COc1ccc(C2=N[C@@H](c3ccc(Cl)cc3)[C@@H](c3ccc(Cl)cc3)N2C(=O)N2CCNC(=O)C2)c(OC(C)C)c1 [Nutlin-3] + C=C(c1ccc(C(=O)O)cc1)c1cc2c(cc1C)C(C)(C)CCC2(C)C [Bexarotene] (first compound 0.1 µM, partner dose 2 µM) | 80.9
Cc1cc(Nc2cc(N3CCN(C)CC3)nc(/C=C/c3ccccc3)n2)n[nH]1 + Cc1nc(Nc2ncc(C(=O)Nc3c(C)cccc3Cl)s2)cc(N2CCN(CCO)CC2)n1 [dasatanib] (first compound 0.04 µM, partner dose 0.004 µM) | 88.2
Cc1cn(-c2cc(NC(=O)c3ccc(C)c(Nc4nccc(-c5cccnc5)n4)c3)cc(C(F)(F)F)c2)cn1 [nilotinib] + CC(=O)O[C@@]12CO[C@@H]1C[C@H](O)[C@@]1(C)C(=O)[C@H](O)C3=C(C)[C@@H](OC(=O)[C@H](O)[C@@H](NC(=O)OC(C)(C)C)c4ccccc4)C[C@@](O)([C@@H](OC(=O)c4ccccc4)[C@H]21)C3(C)C [Docetaxel] (first compound 0.2 µM, partner dose 0.0001 µM) | 65.7
Cn1c(=O)n(-c2ccc(C(C)(C)C#N)cc2)c2c3cc(-c4cnc5ccccc5c4)ccc3ncc21 + CO[C@H]1C[C@@H]2CC[C@@H](C)[C@@](O)(O2)C(=O)C(=O)N2CCCC[C@H]2C(=O)O[C@H]([C@H](C)C[C@@H]2CC[C@@H](OCCO)[C@H](OC)C2)CC(=O)[C@H](C)/C=C(\C)[C@@H](O)[C@@H](OC)C(=O)[C@H](C)C[C@H](C)/C=C/C=C/C=C/1C [everolimus] (first compound 0.004 µM, partner dose 0.02 µM) | 64.3
COc1ccc(C2=N[C@@H](c3ccc(Cl)cc3)[C@@H](c3ccc(Cl)cc3)N2C(=O)N2CCNC(=O)C2)c(OC(C)C)c1 [Nutlin-3] + C[C@]1(c2nc3c(C(N)=O)cccc3[nH]2)CCCN1 [Veliparib] (first compound 0.1 µM, partner dose 1.4 µM) | 89.6
COc1ccc(C2=N[C@@H](c3ccc(Cl)cc3)[C@@H](c3ccc(Cl)cc3)N2C(=O)N2CCNC(=O)C2)c(OC(C)C)c1 [Nutlin-3] + Nc1cccc2c1CN(C1CCC(=O)NC1=O)C2=O [lenalidomide] (first compound 0.1 µM, partner dose 1 µM) | 95.3
CC(C)C[C@H](NC(=O)[C@H](Cc1ccccc1)NC(=O)c1cnccn1)B(O)O [Bortezomib] + O=C(O)[C@@H]1[O][Sb](=[O])([O][Sb]2(=[O])[O][C@H]([C@H](O)CO)[C@H](O)[C@H](C(=O)O)[O]2)[O][C@H]([C@H](O)CO)[C@@H]1O [stibogluconate] (first compound 0.001 µM, partner dose 2 µM) | 38.7
COc1ccc(C2=N[C@@H](c3ccc(Cl)cc3)[C@@H](c3ccc(Cl)cc3)N2C(=O)N2CCNC(=O)C2)c(OC(C)C)c1 [Nutlin-3] + Nc1ccn([C@@H]2O[C@H](CO)[C@@H](O)C2(F)F)c(=O)n1 [gemcitabine] (first compound 0.1 µM, partner dose 0.0004 µM) | 95.3
Cc1cc(Nc2cc(N3CCN(C)CC3)nc(/C=C/c3ccccc3)n2)n[nH]1 + CCCS(=O)(=O)Nc1ccc(F)c(C(=O)c2c[nH]c3ncc(Cl)cc23)c1F [PLX4720] (first compound 0.04 µM, partner dose 0.08 µM) | 90.8
Cn1c(=O)n(-c2ccc(C(C)(C)C#N)cc2)c2c3cc(-c4cnc5ccccc5c4)ccc3ncc21 + COc1ccc(Cl)c(Nc2nc3ccccc3nc2NS(=O)(=O)c2cccc(NC(=O)C(C)(C)N)c2)c1 [XL147] (first compound 0.004 µM, partner dose 0.8 µM) | 85.2
Cc1cn(-c2cc(NC(=O)c3ccc(C)c(Nc4nccc(-c5cccnc5)n4)c3)cc(C(F)(F)F)c2)cn1 [nilotinib] + NC(=O)c1ccc(N(C(N)=O)c2c(F)cccc2F)nc1-c1ccc(F)cc1F [VX702] (first compound 0.2 µM, partner dose 0.4 µM) | 94.6
Cc1cn(-c2cc(NC(=O)c3ccc(C)c(Nc4nccc(-c5cccnc5)n4)c3)cc(C(F)(F)F)c2)cn1 [nilotinib] + O=C(O)c1ccc2c(c1)nc(Nc1cccc(Cl)c1)c1ccncc12 [CX4945] (first compound 0.2 µM, partner dose 0.4 µM) | 104
